Test results published in US20260176319A1, “PEPTIDE ANALOGS AND METHODS OF USING THE SAME” (Kallyope, Inc., priority 2024, published 2026).
Part of at least one peptide drawing is inferred or uncertain, most often the ends. For at least one compound, name, drawing or mass did not settle the structure. Starred links: 1 amine or outer side, 2 acyl side, 3 side chain; linkers in the order of their positions; H or OH if unused. Non-standard residues stand in square brackets, D forms with d. Residues, ends and D or L forms follow the SMILES beside them. *: point of attachment. Trp(7-Me) = Cc1cccc2c(C[C@H](N)C(=O)O)c[nH]c12; C20 diacid = O=C(O)CCCCCCCCCCCCCCCCCCC(=O)*; Hexanoyl(6-NMe3+) = C[N+](C)(C)CCCCCC(=O)*; γGlu = O=C(O)[C@H](CCC(=O)[*:2])N[*:1]; 3Pal = N[C@@H](Cc1cccnc1)C(=O)O; Nle = CCCC[C@H](N)C(=O)O; Dap = NC[C@H](N)C(=O)O; AEEA = NCCOCCOCC(=O)O; βAla = NCCC(=O)O

These molecules were tested against T1, human GRP receptors (Homo sapiens, UniProt P30550) (assay: IP1 GRPR activity: HTRF IP1-Gq assay in U2OS cells stably expressing human GRP receptors). Conditions: 90 minutes incubation, read-out: hIP1 GRPR EC50.
T1 construct: host or cells: U2OS
T1 sequence (P30550 whole entry): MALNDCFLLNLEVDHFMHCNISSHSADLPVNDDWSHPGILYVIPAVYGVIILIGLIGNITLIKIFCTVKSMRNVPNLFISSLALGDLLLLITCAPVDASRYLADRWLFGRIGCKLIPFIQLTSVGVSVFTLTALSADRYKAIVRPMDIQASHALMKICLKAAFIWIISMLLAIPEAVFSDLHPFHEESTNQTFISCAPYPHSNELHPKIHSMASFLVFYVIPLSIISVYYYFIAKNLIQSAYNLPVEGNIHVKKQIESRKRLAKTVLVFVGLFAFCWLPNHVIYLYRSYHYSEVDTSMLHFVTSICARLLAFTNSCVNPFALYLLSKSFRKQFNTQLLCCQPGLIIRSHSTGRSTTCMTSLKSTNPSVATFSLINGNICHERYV
Assay type: cell-based
Method: U2OS cells stably expressing human GRP receptors (DiscoverX, #93-0229C3) were cultured according to manufacturer's instructions. Cells were cultured to […], then collected using AccuTase (Innovative Cell Technologies, #AT104). Cells were washed and plated on a poly-D-lysine-coated 384-well plate (ThermoFisher, #A3890401) at a density of 2,500 cells/well in […] assay buffer (AssayComplete Cell Plating 5 Reagent, DiscoverX #93-0563R5), then incubated overnight at 37° C. and 5% C02. The following morning, a homogenous time-resolved fluorescence (HTRF) assay was performed in a 384-well plate format using the IP1-Gq assay kit (Cisbio, 62IPAPEB). Test compounds were made as a stock in DMSO, then serially diluted to generate 10-point dose response curves in IP1 stimulation buffer. Five microliters of the prepared compounds were then added to the plate containing cells and assay buffer in duplicate, and the cells were incubated at 37° C. and 5% CO2 for 90 minutes. Following compound incubation, […] of IP1 lysis/detection buffer (prepared according to manufacturer's instructions) was added to each well, and the plates were incubated at room temperature for 1 hour. HTRF signals were measured using a plate reader (ClarioSTAR), calculating the ratio between emissions at 665 nm and 620 nm (HTRF ratio). HTRF ratio for positive (Max, […]; SEQ ID NO. 45) and negative (Min, DMSO) controls were used to normalize HTRF data and generate values for % activity. EC50 and Max activity values were determined using a standard 4-parameter fit using GraphPad Prism.
In the case of `CCCC[C@H](NC(=O)[C@H](CC(C)C)NC(=O)[C@H](Cc1c[nH]cn1)NC(=O)CCNC(=O)[C@@H](NC(=O)[C@H](C)NC(=O)[C@H](Cc1c[nH]c2c(C)cccc12)NC(=O)[C@H](Cc1c[nH]cn1)NC(=O)[C@H](CCCNC(=N)N)NC(=O)CNC(=O)COCCOCCNC(=O)COCCOCCNC(=O)CC[C@H](NC(=O)CCCCCCCCCCCCCCCCCCC(=O)O)C(=O)O)C(C)C)C(N)=O` [Peptide 242, Eicosanedioyl-γGlu-OEG-OEG-Gly-Arg-His-7MethylTrp-Ala-Val-β-Ala-His-Leu-Nle-NH2] ({C20 diacid-γGlu-AEEA-AEEA}-GRH[Trp(7-Me)]AV[βAla]HL[Nle]-NH2), the EC50 is reported as 3.9 nM. `CCCC[C@H](NC(=O)[C@H](CC(C)C)NC(=O)[C@H](Cc1c[nH]cn1)NC(=O)CCNC(=O)[C@@H](NC(=O)[C@H](C)NC(=O)[C@H](Cc1c[nH]c2ccccc12)NC(=O)[C@H](Cc1cccnc1)NC(=O)[C@H](CC(N)=O)NC(=O)[C@@H](Cc1ccccc1)NC(=O)COCCOCCNC(=O)COCCOCCNC(=O)CC[C@H](NC(=O)CC[C@H](NC(=O)CCCCCCCCCCCCCCCCCCC(=O)O)C(=O)O)C(=O)O)C(C)C)C(N)=O` [Peptide 245, Eicosanedioyl-γGlu-γGlu-OEG-OEG-D-Phe-Asn-3PAl-Trp-Ala-Val-β-Ala-His-Leu-Nle-NH2] ({C20 diacid-γGlu-γGlu-AEEA-AEEA}-[dF]N[3Pal]WAV[βAla]HL[Nle]-NH2) was tested, and the EC50 was 11.9 nM. `CCCC[C@H](NC(=O)[C@H](CC(C)C)NC(=O)[C@H](Cc1c[nH]cn1)NC(=O)CCNC(=O)[C@@H](NC(=O)[C@H](C)NC(=O)[C@H](Cc1c[nH]c2c(C)cccc12)NC(=O)[C@H](Cc1c[nH]cn1)NC(=O)[C@H](CCCNC(=N)N)NC(=O)[C@H](CCCNC(=N)N)NC(=O)COCCOCCNC(=O)COCCOCCNC(=O)CC[C@H](NC(=O)CC[C@H](NC(=O)CCCCCCCCCCCCCCCCCCC(=O)O)C(=O)O)C(=O)O)C(C)C)C(N)=O` [Peptide 253, Eicosanedioyl-γGlu-γGlu-OEG-OEG-Arg-Arg-His-7MeTrp-Ala-Val-β-Ala-His-Leu-Nle-NH2] ({C20 diacid-γGlu-γGlu-AEEA-AEEA}-RRH[Trp(7-Me)]AV[βAla]HL[Nle]-NH2) gave an EC50 of 3.7 nM. `CCCC[C@H](NC(=O)[C@H](CC(C)C)NC(=O)[C@H](Cc1c[nH]cn1)NC(=O)CCNC(=O)[C@@H](NC(=O)[C@H](C)NC(=O)[C@H](Cc1c[nH]c2c(C)cccc12)NC(=O)[C@H](Cc1c[nH]cn1)NC(=O)[C@H](CCCNC(=N)N)NC(=O)CNC(=O)[C@H](CCCNC(=N)N)NC(=O)COCCOCCNC(=O)COCCOCCNC(=O)CC[C@H](NC(=O)CC[C@H](NC(=O)CCCCCCCCCCCCCCCCCCC(=O)O)C(=O)O)C(=O)O)C(C)C)C(N)=O` [Peptide 254, Eicosanedioyl-γGlu-γGlu-OEG-OEG-Arg-Gly-Arg-His-7MeTrp-Ala-Val-β-Ala-His-Leu-Nle-NH2] ({C20 diacid-γGlu-γGlu-AEEA-AEEA}-RGRH[Trp(7-Me)]AV[βAla]HL[Nle]-NH2) showed an EC50 of 3.7 nM. `CCCC[C@H](NC(=O)[C@H](CC(C)C)NC(=O)[C@H](Cc1c[nH]cn1)NC(=O)CCNC(=O)[C@@H](NC(=O)[C@H](C)NC(=O)[C@H](Cc1c[nH]c2ccccc12)NC(=O)[C@H](Cc1c[nH]cn1)NC(=O)[C@H](CNC(=O)CCCCC[N+](C)(C)C)NC(=O)CNC(=O)COCCOCCNC(=O)COCCOCCNC(=O)CC[C@H](NC(=O)CCCCCCCCCCCCCCCCCCC(=O)O)C(=O)O)C(C)C)C(N)=O` [Peptide 261, Eicosanedioyl-γGlu-OEG-OEG-Gly-Dap(5CTMPA)-His-Trp-Ala-Val-β-Ala-His-Leu-Nle-NH2] ({C20 diacid-γGlu-AEEA-AEEA}-G[Dap](Hexanoyl(6-NMe3+))HWAV[βAla]HL[Nle]-NH2) showed an EC50 of 4 nM.
